Laboratory results reported in PMC3057972, “BAG3 Directly Interacts with Mutated alphaB-Crystallin to Suppress Its Aggregation and Toxicity” (PLoS ONE, 2011).
These are yes or no findings as the source states them, for the method shown. For some assays here: Binding seen in cells or lysates may run through a third protein. Some entries that bind do so weakly or less than the wild type. For some assays here: Sequences can lack the tags named with a protein.

The chains behind the UniProt entries cited, without tags or fusion partners. Where a name states a change or a piece, a line headed by the entry shows the natural chain unless it says otherwise. A line that says so, or that is headed by a name, gives the form on record, which may keep a tag or linker.
UniProt O95817: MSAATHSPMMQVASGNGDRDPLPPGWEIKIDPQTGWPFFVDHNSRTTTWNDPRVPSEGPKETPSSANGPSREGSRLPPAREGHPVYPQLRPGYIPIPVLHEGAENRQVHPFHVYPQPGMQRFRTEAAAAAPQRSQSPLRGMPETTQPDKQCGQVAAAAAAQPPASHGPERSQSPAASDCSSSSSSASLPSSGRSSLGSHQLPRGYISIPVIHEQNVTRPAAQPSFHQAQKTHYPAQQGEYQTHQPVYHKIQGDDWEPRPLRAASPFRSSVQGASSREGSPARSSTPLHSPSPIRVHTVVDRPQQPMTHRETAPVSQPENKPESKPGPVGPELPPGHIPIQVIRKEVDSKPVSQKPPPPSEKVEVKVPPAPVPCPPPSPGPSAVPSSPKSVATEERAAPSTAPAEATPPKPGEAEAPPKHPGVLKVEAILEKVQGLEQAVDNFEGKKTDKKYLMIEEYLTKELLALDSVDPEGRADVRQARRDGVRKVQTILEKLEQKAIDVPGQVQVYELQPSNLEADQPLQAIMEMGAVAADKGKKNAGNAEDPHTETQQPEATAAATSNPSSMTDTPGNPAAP
His-BAG3ΔM2 (deletion of aa 87–101 and aa 200–213) (O95817, form named): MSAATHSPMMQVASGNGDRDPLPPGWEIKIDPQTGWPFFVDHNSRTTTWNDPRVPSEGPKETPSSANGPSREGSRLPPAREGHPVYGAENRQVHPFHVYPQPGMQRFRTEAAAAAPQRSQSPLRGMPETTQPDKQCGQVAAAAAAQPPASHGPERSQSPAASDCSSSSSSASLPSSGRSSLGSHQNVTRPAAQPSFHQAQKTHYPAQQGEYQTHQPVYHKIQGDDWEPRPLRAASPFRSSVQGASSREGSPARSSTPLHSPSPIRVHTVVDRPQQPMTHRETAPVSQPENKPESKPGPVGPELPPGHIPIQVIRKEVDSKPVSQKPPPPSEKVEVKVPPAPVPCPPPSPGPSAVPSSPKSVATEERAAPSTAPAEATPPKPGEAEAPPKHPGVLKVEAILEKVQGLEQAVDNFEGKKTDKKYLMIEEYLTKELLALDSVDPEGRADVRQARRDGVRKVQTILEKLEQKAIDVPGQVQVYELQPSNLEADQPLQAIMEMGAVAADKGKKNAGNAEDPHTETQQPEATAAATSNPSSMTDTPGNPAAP
UniProt P63018: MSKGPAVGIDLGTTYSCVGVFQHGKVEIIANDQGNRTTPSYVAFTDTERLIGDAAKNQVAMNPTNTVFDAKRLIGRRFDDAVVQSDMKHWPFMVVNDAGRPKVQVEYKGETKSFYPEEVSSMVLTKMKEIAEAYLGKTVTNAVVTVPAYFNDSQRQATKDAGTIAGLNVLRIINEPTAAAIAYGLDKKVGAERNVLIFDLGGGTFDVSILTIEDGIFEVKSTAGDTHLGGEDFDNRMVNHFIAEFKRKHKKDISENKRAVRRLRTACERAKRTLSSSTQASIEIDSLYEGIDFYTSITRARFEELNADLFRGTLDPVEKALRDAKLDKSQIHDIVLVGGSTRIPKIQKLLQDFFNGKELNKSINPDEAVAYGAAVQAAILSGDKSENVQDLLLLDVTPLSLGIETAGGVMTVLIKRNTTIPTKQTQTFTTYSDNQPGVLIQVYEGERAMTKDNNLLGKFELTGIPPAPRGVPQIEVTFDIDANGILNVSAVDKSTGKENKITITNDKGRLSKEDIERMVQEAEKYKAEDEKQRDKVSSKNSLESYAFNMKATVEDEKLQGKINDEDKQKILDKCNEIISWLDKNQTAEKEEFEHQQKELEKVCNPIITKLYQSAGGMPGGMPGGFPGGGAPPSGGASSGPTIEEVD

What was measured:
[1] = target: Flag-tagged BAG3 (expressed in rat neonatal cardiomyocytes using adenovirus) (human) (UniProt O95817); experiment: co-IP; Flag-tagged BAG3 expressed by adenovirus in rat neonatal cardiomyocytes; cell extract immunoprecipitated with anti-Flag antibody; endogenous proteins detected by immunoblot
[2] = target: Flag-tagged BAG3 wild type (expressed in HEK293 cells) (human) (UniProt O95817); experiment: co-IP; HEK293 cells transiently transfected with Flag-tagged BAG3 or mutants and αB-crystallin; lysed 48 h later in immunoprecipitation buffer (20 mM Tris pH 7.5, 150 mM NaCl, 1% TritonX-100); immunoprecipitated with anti-Flag antibody; immunoblot
[3] = target: His-BAG3 wild type (expressed in HEK293 cells) (human) (UniProt O95817); experiment: co-IP; HEK293 cells expressing His-tagged BAG3 or BAG3ΔM2 with αB-crystallin; cell extract precipitated with anti-His antibody; immunoblot with anti-αB-crystallin antibody
[4] = target: His-BAG3ΔM2 (deletion of aa 87–101 and aa 200–213) (human) (UniProt O95817); experiment: as above
GST-BAG3 = target: T1, GST-BAG3 (human, UniProt O95817 1-575); experiment: condition: only with both peptides (aa 87–101 and aa 200–213 of BAG3) present; pull-down; competition: purified GST-BAG3 incubated with purified αB-crystallin in the presence or absence of peptides aa 87–101 or 200–213 of BAG3; precipitated with GSH beads; immunoblot with anti-αB-crystallin …; both purified
T1 construct: BAG3, human, cDNA subcloned into pGEX-6P-1; also called GST-fused BAG3; GST protein fused to BAG3; source: E. coli BL21, purified (glutathione-Sepharose beads)

| Molecule | binding [1] | binding [2] | also measured |
| --- | --- | --- | --- |
| endogenous Hsc70 of rat neonatal cardiomyocytes (from UniProt P63018 1-646) | binds |  |  |
| αB-crystallin R120G (non-tagged, expressed in HEK293 cells) (protein, UniProt P02511 1-175) MDIAIHHPWIRRPFFPFHSPSRLFDQFFGEHLLESDLFPTSTSLSPFYLRPPSFLRAPSWFDTGLSEMRLEKDRFSVNLDVKHFSPEELKVKVLGDVIEVHGKHEERQDEHGFISREFHGKYRIPADVDPLTITSSLSSDGVLTVNGPRKQVSGPERTIPITREEKPAVTAAPKK |  | binds |  |
| αB-crystallin wild type (non-tagged, expressed in HEK293 cells) (protein, UniProt P02511 1-175) MDIAIHHPWIRRPFFPFHSPSRLFDQFFGEHLLESDLFPTSTSLSPFYLRPPSFLRAPSWFDTGLSEMRLEKDRFSVNLDVKHFSPEELKVKVLGDVIEVHGKHEERQDEHGFISREFHRKYRIPADVDPLTITSSLSSDGVLTVNGPRKQVSGPERTIPITREEKPAVTAAPKK |  | binds | binding [3]: binds; binding [4]: no binding |
| purified αB-crystallin wild type (from E. coli) (natural protein, human, UniProt P02511 1-175, looked up, αB-crystallin, human, wild type; probably made as a GST fusion from pGEX-6P-1 with the GST removed (it is pulled down by GST-BAG3 on GSH beads); also called WT; source: E. coli, purified) MDIAIHHPWIRRPFFPFHSPSRLFDQFFGEHLLESDLFPTSTSLSPFYLRPPSFLRAPSWFDTGLSEMRLEKDRFSVNLDVKHFSPEELKVKVLGDVIEVHGKHEERQDEHGFISREFHRKYRIPADVDPLTITSSLSSDGVLTVNGPRKQVSGPERTIPITREEKPAVTAAPKK |  |  | binding (GST-BAG3): no binding |

Further lines, with some results ahead:

| binding [1] | binding [2] | Molecule | also measured |
| --- | --- | --- | --- |
|  | binds | endogenous Hsc70 of HEK293 cells (from UniProt P11142-1 1-646) |  |
| binds |  | endogenous αB-crystallin of rat neonatal cardiomyocytes (protein, UniProt P23928 1-175) MDIAIHHPWIRRPFFPFHSPSRLFDQFFGEHLLESDLFSTATSLSPFYLRPPSFLRAPSWIDTGLSEMRMEKDRFSVNLDVKHFSPEELKVKVLGDVIEVHGKHEERQDEHGFISREFHRKYRIPADVDPLTITSSLSSDGVLTVNGPRKQASGPERTIPITREEKPAVTAAPKK |  |
